# Laboratory results as given in the supplement of paper PMC8728848.
# Some of the results follow.
# How the values were obtained:
# [1] = target: Neu5Gc(a2-8)Neu5Gc(a2-6)Gal(b1-4)GlcNAc; test: glycan array binding signal (z-score within array); higher = stronger binding; conditions: glycan notation: IUPAC condensed, linker removed
# In short: (§1)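 Negative Z-scores can be read as non-binding. The Z-score is calculated within each array and then averaged across arrays of one protein sequence at different concentrations or buffers and across linkers. Arrays, 3228 in all, were curated from the Consortium for Functional Glycomics database and kept only where the protein sequence was available.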
# [2] = target: Neu5Gc(b2-6)Gal(b1-4)GlcNAc; test: as above; conditions: glycan notation: IUPAC condensed, linker removed
# In short: as §1
binder,measurement,setting,value
PX14375C-bth-509-28-509 (Bacteroides thetaiotaomicron) (protein) RSPQGQFTEDDNPNALVNGKIYNVYTMMRSFDITAGTPAIAIHYLRSEDSEKGSIPSDGSDVAEMYDDFLYTPTNGLLGSYWGKNYAIIYQCNDILDAIAEKETAGQTETEDIINKGEASFFRAYCYFNLVRAFGEVPLVTYKINDASEANIPKTTADKIYEQIDTDLKTAEESLPETWSTEYTGRLTWGAARSLHARTYMMRSDWDNMYKASTDVINKGLYNLKTPYNEIFTDDGENSGGSIFELQCTATAALPQSDVIGSQFCEVQGVRGAGQWDLGWGWHMATQLMADAYETGDPRKNATLLYFRKTDDEPITPENTNEPYGESPISPAMGAYFNKKAYTDPALRKEYTNKGFWVNIRLIRYSDVVLMAAEAANEKNIPGEAVDYLEMVRARARGTNTNILPKITTNDQGELREAIRHERRVELGLEPDRFYDLVRWGIASEVLHAAGKVNYQDKNALLPLPQSEIDKSKGVLVQNPDY,glycan array binding signal (z-score),[1],-0.469
same,glycan array binding signal (z-score),[2],-0.215
